Measurements as given in PubChem BioAssay AID489038 (National Center for Advancing Translational Sciences (NCATS), 2010).
Where “and” joins values, the source holds several entries; their conditions need not be identical. Identical values can stand only once. The shares of active, inactive and inconclusive entries below differ from those in the screen. Where the call is inconclusive, the potency comes from a doubtful curve fit. Calls of active or inactive are those of the source. Calls come from the whole dose curve; as a rule, active = well fitted inhibition curve with a large enough effect; inconclusive = small, poorly fitted or top-dose-only effect, or effect the other way; inactive = no such curve, though single readings can be large or run the other way.

assay: DHR3 selectivity assay for inhibitors of ROR gamma transcriptional activity; conditions: Drosophila S2 Gal4-DHR3 UAS-luciferase, 20 h; activity change, negative = inhibition: at 92.2 µM (top of the series)
Excerpt: NIH Molecular Libraries Probe Production Network [MLPCN] NIH Chemical Genomics Center [NCGC] MLPCN Grant: R03 DA026211-01 Assay Provider: Dan Littman, New York University Assay Overview: The retinoic acid-related orphan receptor (ROR) gamma is a transcription factor that has a central role in the differentiation of Th17 cells, a subset of T helper cells that secrete the inflammatory cytokines IL-17A, IL-17F, and IL-22. Th17 cells have been implicated in graft versus host disease, autoimmune disease and asthma. RORgamma is induced in naive T helper cells in the presence of TGF-beta combined with IL-6, IL-21, or IL-23, and thereafter directs the expression of the Th17 lineage cytokines. To identify […] inhibitors, a Drosophila Schneider cell line was stably transfected with two vectors: a gene expressing a fusion of the Gal4 DNA binding domain and the transactivation domain of the Drosophila Hormone Receptor 3 (DHR3), under the control of the metallothionine promoter and a Photinus luciferase reporter regulated by the Gal4 binding site enhancer, UAS. […] Small molecule inhibitors that inhibit components common to the RORgamma and DHR3 assays, such as proteins that interact with general nuclear hormone receptors, will be active in both assays and thus scored as nonselective.
Assay Protocol Summary: For screening, 600 cells in 4 uL/well were dispensed into white solid 1536-well plates (Grenier) using a solenoid-based dispenser. Following transfer of 23 nL compound or DMSO vehicle by a pin tool, the plates were incubated 1 hr at ambient temperature, and 1 uL/well copper sulfate (700 uM final concentration) was added. The plates were centrifuged 15 s at 1000 RPM and incubated 20 hr at ambient temperature. After addition of 1.5 uL Photinus luciferase detection reagent, the plates were incubated 10 min at ambient temperature and then read by an ViewLux (Perkin Elmer) to detect luminescence.
% is set by controls: 0 for no effect and ±100 for the full control effect; potency is the fitted concentration of half-maximal effect; tags give direction and shape of the fitted curve.

Row | SMILES | Potency | activity change, negative = inhibition
1 | COc1cc(O)c(C(CC(=O)N2CCCC(C)C2)c2ccc(C)cc2)c(OC)c1 (stereo not given) | inconclusive: 72.4 µM [activator, partial curve, poor fit] | –
2 | COc1cc(O)c(C(CC(=O)N2CCC(C)CC2)c2ccc(C)cc2)c(OC)c1 (stereo not given) | inconclusive: 12.9 µM [activator, partial curve, poor fit] | –
3 | COc1ccc(-c2nnc(-c3ccc(N(C)C)cc3)o2)cc1 | inconclusive: 0.645 µM [inhibitor, full curve, poor fit] | –
4 | CCCCNC(=O)CC(c1ccc2c(c1)OCO2)c1c(O)cc(OC)cc1OC (stereo not given) | inconclusive: 45.7 µM [activator, single point] | –
5 | CCOc1ncccc1C(=O)OCC(=O)Nc1ccc(-c2nc3ccc(C)cc3s2)cc1 | active: 0.363 µM | –
6 | c1ccc(Cn2c(-c3ccccc3)c[n+]3c2SCCC3)cc1 | inconclusive: 0.575 µM [inhibitor, full curve, poor fit] | –
7 | Cc1ccc(C(=O)O/N=C/c2ccc(N(C)C)cc2)cc1 | inconclusive: 5.75 µM [activator, full curve] | –
8 | COc1cc(O)c(C(CC(=O)N2CCCC(C)C2)c2ccc3c(c2)OCO3)c(OC)c1 (stereo not given) | inactive and inconclusive: 323 nM [activator, full curve, poor fit] | –
9 | COc1ccc(C(CC(=O)N2CC(C)CC(C)C2)c2c(O)cc(OC)cc2OC)cc1 (stereo not given) | inconclusive: 0.0072 µM [activator, full curve, poor fit] | –
10 | COc1cc(O)c(C(CC(=O)N2CCCC(c3nc4ccccc4o3)C2)c2ccc3c(c2)OCO3)c(OC)c1 (stereo not given) | – | inactive: -5.9%
11 | CC1CCCN(C(=O)CC(c2ccc3c(c2)OCO3)c2cc(C(C)C)ccc2O)C1 (stereo not given) | – | inactive: 23.2%
12 | COc1cc(OC)c(C(CC(=O)N2CC(C)CC(C)C2)c2ccc3c(c2)OCO3)c(OC)c1 (stereo not given) | inconclusive: 28.8 µM [inhibitor, partial curve, poor fit] | –
13 | COc1ccc2nc(NNC(=O)COc3ccccc3)sc2c1 | inconclusive: 1.15 µM [activator, full curve, poor fit] | –
14 | Cc1cccc(C(CC(=O)NCc2ccco2)c2ccccc2)c1O (stereo not given) | inconclusive: 20.4 µM [activator, partial curve, poor fit] | –
15 | COc1cc(O)c(C(CC(=O)N2CCCCC2)c2ccc(OC)c(OC)c2)c(OC)c1 (stereo not given) | inconclusive: 36.3 µM [activator, partial curve] | –
16 | CCC1(CC)CCN(C(=O)CC(c2ccc3c(c2)OCO3)c2c(O)cc(OC)cc2OC)C1 (stereo not given) | – | inactive: 18.8%
17 | Cc1nn(-c2cc(C)c3ccccc3n2)c2c1C1C(C2)C1(C)C (stereo not given) | inconclusive: 22.9 µM [inhibitor, full curve, poor fit] | –
18 | COc1cc(O)c(C(CC(=O)N2CCCC(C)C2)c2ccccc2)c(OC)c1 (stereo not given) | inconclusive: 72.4 µM [activator, single point] | –
19 | Cc1cc(C)n(-c2nc(SCC(=O)O)c3c4c(sc3n2)CCCC4)n1 | inconclusive: 18.2 µM [activator, partial curve] | –
20 | O=C(NC(=S)Nc1nc(-c2ccccc2)cs1)c1cccnc1 | inconclusive: 3.23 µM [activator, full curve] | –

Row | SMILES | Potency | activity change, negative = inhibition
21 | CC1=C(\C=C/C(C)=C/C=C\C(C)=C\C(=O)O)C(C)(C)CCC1 | – | inactive: -6.6% [at 20 µM]
22 | COc1cc(OC)c(C(CC(=O)N2CC(C)CC(C)C2)c2ccc3c(c2)OCO3)c(OCC#N)c1 (stereo not given) | inconclusive: 22.9 µM [activator, full curve, poor fit] | –
23 | Cc1ccc(O)c(C(CC(=O)NC2CCCCC2)c2ccccc2)c1 (stereo not given) | inconclusive: 18.2 µM [activator, full curve, poor fit] | –
24 | CCNC(=O)CCc1nc(-c2ccc(C(C)(C)C)cc2)no1 | active: 0.115 µM | –
25 | COc1cc(O)c(C(CC(=O)N2CC(C)CC(C)C2)c2ccc(O)cc2)c(OC)c1 (stereo not given) | inconclusive: 0.645 µM [activator, full curve, poor fit] | –
26 | COc1cc(O)c(C(CC(=O)Nc2ccc(C)cc2)c2ccc3c(c2)OCO3)c(OC)c1 (stereo not given) | inconclusive: 72.4 µM [inhibitor, single point] | –
27 | Cc1ccc(C(CC(=O)N2CCCC(C)C2)c2ccc3c(c2)OCO3)c(O)c1 (stereo not given) | inconclusive: 4.57 µM [activator, partial curve] | –
28 | COc1cc(O)c(C(CC(=O)NC2CCC(C)CC2)c2ccc3c(c2)OCO3)c(OC)c1 (stereo not given) | – | inactive: 8.82%
29 | CC(C)(C(=O)Nc1nccs1)C(c1ccccc1)c1ccc(O)cc1 (stereo not given) | inconclusive: 10.2 µM [activator, partial curve] | –
30 | COc1cc(O)c(C(CC(=O)N2CCCC(C)C2)c2ccccc2C)c(OC)c1 (stereo not given) | – | inactive: -28.6%
31 | COc1cc(O)c(C(CC(=O)N[C@H](C)c2ccccc2)c2ccc3c(c2)OCO3)c(OC)c1 (stereo not given in full) | inconclusive: 1.02 µM [activator, full curve, poor fit] | –
32 | CCOc1ccc(C(CC(=O)N2CCCC(C)C2)c2c(O)cc(OC)cc2OC)cc1 (stereo not given) | inconclusive: 72.4 µM [activator, single point] | –
33 | COC(=O)c1ccc(OCC(=O)c2ccc(O)cc2O)cc1 | active: 0.363 µM | –
34 | COc1ccc(C)c(O)c1C(CC(=O)N1CCCC(C)C1)c1ccc2c(c1)OCO2 (stereo not given) | inconclusive: 72.4 µM [inhibitor, single point] | –
35 | COc1cc(O)c(C(CC(=O)N2CCCCC2C)c2ccc3c(c2)OCO3)c(OC)c1 (stereo not given) | inconclusive: 18.2 µM [activator, single point] | –
36 | COc1cc(O)c(C(CC(=O)N2CCCCC2)c2ccc(C)cc2)c(OC)c1 (stereo not given) | inconclusive: 0.229 µM [inhibitor, full curve, poor fit] | –
37 | COc1ccc(C(CC(=O)Nc2ccc(F)cc2)c2ccccc2)cc1 (stereo not given) | – | inactive: 17%
38 | COc1cc(O)c(C(CC(=O)N2CCC(c3ccccc3)CC2)c2ccc(C)cc2)c(OC)c1 (stereo not given) | inconclusive: 1.15 µM [activator, full curve, poor fit] | –
39 | COc1cc(O)c(C(CC(=O)N2CCC(c3ccccc3)CC2)c2ccc(OC)c(OC)c2)c(OC)c1 (stereo not given) | inconclusive: 72.4 µM [inhibitor, partial curve, poor fit] | –
40 | Cc1ccc(C(C)C)c(C(CC(=O)N2CCCC(C)C2)c2ccc3c(c2)OCO3)c1O (stereo not given) | – | inactive: -27.4%
